Binding signal data for 22 molecules are collected here from PMC12136788.

Some of the results follow.

B1: chr19:6380113:6380214:-|3pUTR|ENSG00000125651|msi1|FALSE|unique (ssRNA)
RNA: GGGAGUUCUACAGUCCGACGAUCACUUCAGGCUCUCAGUGACCCUUCGACAUCCUGCUUGCUCCCUGACUCCCAGGGCCCCGUAGUUAGCAAUUCUGGAAAAGUUAAGCCAUCUCCUCCUCUGGCCCUUCCUUCUGGAAUCUUCAACAGAGGAUUGAGCAUCA
B2: chr5:159158860:159158961:-|CDS|ENSG00000145860|msi1|total|mutant (ssRNA)
RNA: GGGAGUUCUACAGUCCGACGAUCCCAGGAGACCUGCCCUCUGUGCCACUGCCAUCUGAAAAACUCCUCCCAGCUUCCAGGAUCCGGAACUGAGCCAGUUCUACAGCCUCAUGCUGGAGCUGAGCAAAACGUCAUGUUUCAGGACAACAGAGGAUUGAGCAUCA
B3: chr3:89481969:89482070:+|3pUTR|ENSG00000044524|msi1|FALSE|unique (ssRNA)
RNA: GGGAGUUCUACAGUCCGACGAUCAUAUGUGUUUACUUUAAACUUGUCUUUUCAAAAUAUUACUCAGUUUAUGUUGUACAAUGUAGAUGGCCUCUUACUAAUGUAAAAUGAUUUGUAGUGGAAACAUUUAUAUUUUUAUAAUAACAACAGAGGAUUGAGCAUCA
B4: chr12:89590234:89590335:-|3pUTR|ENSG00000070961|msi1|total|mutant (ssRNA)
RNA: GGGAGUUCUACAGUCCGACGAUCUUUGCCUACAAUUUACCUUGUUAAAUAUUGCCGAUAAAUUGCUAAUACUAACCGCCAAACCGAUAACACUAAUGCUUUGUUUAAAAAAACGAAAAAAACAAAACAAAACAAAAAAACAUGCAACAGAGGAUUGAGCAUCA
B5: chr11:7467339:7467451:+|3pUTR|ENSG00000170743|unk|total|mutant (ssRNA)
RNA: GGGAGUUCUACAGUCCGACGAUCCCAAGAGAAUACCAAGACAAGCAGGCUGUUCCCUGGAAAAAAUCUAAUGCAAGGAGGGCCCGUUCACAGCAAAUUCACUGCCUCCUCCCAUGCACGUGGCCGAGAGUACCAGUAUCAACACAACAGAGGAUUGAGCAUCA
B6: chr1:154207159:154207278:-|3pUTR|ENSG00000143612|msi1_unk|total|mutant (ssRNA)
RNA: GGGAGUUCUACAGUCCGACGAUCUUCCCCAACCCUUCCUUAUGAGCAUUUUCCGAACAUUGGCUAAGACUAUUUUCCCCCAGCCGCGCUUUUUUCUGGAUUUGCAUUCAGGUGUUAUUCUUAAUGUUUCUGUCAAAGCUUCUUCAACAGAGGAUUGAGCAUCA
B7: chrX:30854639:30854752:-|CDS|ENSG00000157625|unk|total|mutant (ssRNA)
RNA: GGGAGUUCUACAGUCCGACGAUCUUCAGCUCUCCACAGCAUCAAGUGCAACCUUCCCAGUUGGGCCACAUCUUUAUGCCACCCCGUCCUUCAACUACUCCACCCCAUCCAUAUCAACAAGGACCUCCCCGCUAUCAGAAACAGCAACAGAGGAUUGAGCAUCA
B8: ENSG00000139116:stop:overlap|stop_codon|ENSG00000139116|stop_codon|NA|stop_codon (ssRNA)
RNA: GGGAGUUCUACAGUCCGACGAUCAUGCUUUACUAGGCCAUGCUUUACAAGAUCUAGAUAGCGUACCAUUAGGUAAGUAUGUUUAGCUUUCUGUGUAUCCUACAGCUGCAUGAAUUACUAAUUGUUCAUGUACACUAAUUGUGGCAACAGAGGAUUGAGCAUCA
B9: chr1:193013303:193013404:-|3pUTR|ENSG00000116750|unk|total|mutant (ssRNA)
RNA: GGGAGUUCUACAGUCCGACGAUCAAACCACUCCCGCUAUUUGAAGAGGAAUGCAGAUUUAUAUUGGGAGUUUUGAAACUACACCGUUUCUUACAAAAUCAUUGGAAGGUUUGGAGGAGCGGUUUCAAGCUUAAGUCUCCAGAGCAACAGAGGAUUGAGCAUCA
B10: chr4:99420532:99420793:-|CDS|ENSG00000196344|control|control|control (ssRNA)
RNA: GGGAGUUCUACAGUCCGACGAUCUGCAUCUAGGAUCAUUGGGAUUGACCUCAACAAAGACAAAUUUGAGAAGGCCAUGGCUGUAGGUGCCACUGAGUGUAUCAGUCCCAAGGACUCUACCAAACCCAUCAGUGAGGUGCUGUCCAACAGAGGAUUGAGCAUCA
B11: chr11:102396659:102396760:-|3pUTR|ENSG00000152558|msi1_unk|total|mutant (ssRNA)
RNA: GGGAGUUCUACAGUCCGACGAUCCUUUUUCUCUGUAUGUAAGCCGUAUAAUUUGUUACUUUCAAAUACCCGUACUUUGAAUGCCGGUUUUUUUGUUGUUGUUAUCUAUAAAAAUUGAGGGAAAUGGUUAUGCAAAAAAAUAUUCAACAGAGGAUUGAGCAUCA
B12: chr17:63423787:63423888:+|3pUTR|ENSG00000170921|msi1|FALSE|bound_elsewhere (ssRNA)
RNA: GGGAGUUCUACAGUCCGACGAUCCUAACUCAAGCCCCAGCCUCUUUCCACACUCCCUGAUACCUAAGGACUGCUUUCUCAGCUAGACCAGGGUGGGCAUCAGCGACGCCUUCUCAGCUAGACCAGGGUAGGCAUCAGCGUCCUCAACAGAGGAUUGAGCAUCA
B13: chr11:46383557:46383658:+|3pUTR|ENSG00000110492|msi1_unk|FALSE|overlapping (ssRNA)
RNA: GGGAGUUCUACAGUCCGACGAUCCCACGCCCUCCCUCUCCCAGGCCCGAGAUGUGACCCACCAGUGCCUUCUGUCUGCUCGUUAGCUUUAAUCAAUCAUGCCCUGCCUUGUCCCUCUCACUCCCCAGCCCCACCCCUAAGUGCCAACAGAGGAUUGAGCAUCA
B14: ENSG00000145990:stop:overlap|stop_codon|ENSG00000145990|stop_codon|NA|stop_codon (ssRNA)
RNA: GGGAGUUCUACAGUCCGACGAUCUGAGCCCCGCCUACCUGAUCAGCGAGGCCAUGCGCCGCAGCAGGAUGUCCCUCUACUGUUAGCACAGAUUGAGAACCUCGGGGACUUGAGCCUUCUGCAGGGGAUGUCCACAGAGAGGGACAACAGAGGAUUGAGCAUCA
B15: chr3:107805913:107806014:+|3pUTR|ENSG00000114439|msi1_unk|total|mutant (ssRNA)
RNA: GGGAGUUCUACAGUCCGACGAUCUACAUGGAGAUUUAAGUUUAAGAUGGUUUAUAUAACCGGUUAUACCUACAUUUAUAUUGCCGAAUAAAUAUUAAAAAGCCUGUUCCAGAGACUCCCAAGCAGCCUGGGCAGGCAGAUGUACAACAGAGGAUUGAGCAUCA
B16: chr17:67075675:67075776:-|3pUTR|ENSG00000198265|unk|FALSE|unique (ssRNA)
RNA: GGGAGUUCUACAGUCCGACGAUCAUUCCUUAUUUCCAUAGCCAGUCAAGGAUUCUAACGCUGCUUCCAUCUGAUACUCUUCUUAGAUUCUGCAUCAAAUGCUUAUUUUGACUUACAACAAGCUUACUCUUCCUCAGCAUUACACAACAGAGGAUUGAGCAUCA
B17: chr5:55424853:55425205:-|three_prime_utr|ENSG00000067113|control|control|control (ssRNA)
RNA: GGGAGUUCUACAGUCCGACGAUCCAAGCCUUUAAAGACUUCUGCUGCUGCUAUGCCUCUUGGAUGCACACUUUGUGUGUACAUAGUUACCUUUAACUCAGUGGUUAUCUAAUAGCUCUAAACUCAUUAAAAAAACUCCAAGCCCAACAGAGGAUUGAGCAUCA
B18: chr16:46798953:46799054:-|3pUTR|ENSG00000155330|unk|total|mutant (ssRNA)
RNA: GGGAGUUCUACAGUCCGACGAUCUCUAUAUUUUUUUCUUUGCCUUAUUGCACUGGUUGGGACUUUUUGCCUUGAUCCAGUUGCCGGGGGGAAACAUUCAGUCAUUAAGCAUUAAAUAACUUUGUUGUUGUUGUGGGCUUGAAACAACAGAGGAUUGAGCAUCA
B19: chr1:67426168:67426278:-|CDS|ENSG00000142864|unk|FALSE|unique (ssRNA)
RNA: GGGAGUUCUACAGUCCGACGAUCAUAAGACGAGUUGGAAGAAGACCUGAUCAACAACUUCAGGGUGAAGGGAAAAUAAUUGAUAGAAGACCAGAAAGGCGACCACCUCGUGAACGAAGAUUCGAAAAGCCACUUGAAGAAAAGCAACAGAGGAUUGAGCAUCA
B20: chr15:49134392:49134529:-|CDS|ENSG00000166200|unk|total|mutant (ssRNA)
RNA: GGGAGUUCUACAGUCCGACGAUCAUAUUUGCUUUCCCCGACUGAUGAUGGAGAAGAUGAUCUGAAAAAAGGUACACAGUUAUCCGAAAUAUAUGCUUUGGAAAUUCAAAUGUACACAGCACAGAAAAAUAACAAAAAACUUAACAACAGAGGAUUGAGCAUCA
B21: chr11:130877263:130877364:-|3pUTR|ENSG00000120451|msi1|total|mutant (ssRNA)
RNA: GGGAGUUCUACAGUCCGACGAUCCAGUCCUUUAACAACACCAGCAUGAAGGCAAAGGUGUUUUGUCAGACUGCAACAUCUAUCCGAAAGGCAAGGCAACUGGGAAUUGCUGGAGAAGGAUAAAUCAGGAGGAAUUGCUGGCCGCAACAGAGGAUUGAGCAUCA
B22: chr1:150960872:150960973:+|CDS|ENSG00000143379|unk|total|mutant (ssRNA)
RNA: GGGAGUUCUACAGUCCGACGAUCGGACUCCCACCCCCCAGAUCUUGGACCCCCACAUAUUCCUGUUCCUCCCUCAAUCCCUGCCGGUGGCUGCAAUCCACCUUCCUCCGAAGAGACACCCAAGAACAAGGUGGCCUCAUGGUUCAACAGAGGAUUGAGCAUCA

The assay addresses MSI1 full-length (mouse, UniProt Q61474 1-362). Put plainly: nsRBNS (natural sequence RNA bind-n-seq); RBNS binding buffer (assumed for nsRBNS): 25 mM Tris pH 7.5, 150 mM KCl, 3 mM MgCl2, 0.01% Triton X-100, 500 ug/ml BSA, 20 U/ml SUPERase-In, 4 C; UNK is unkempt and MSI1 is Musashi-1; names of the RNAs are library labels; protein concentration not given here; high values mean tight binding.
Sequence of UniProt Q61474 (Q61474 whole entry): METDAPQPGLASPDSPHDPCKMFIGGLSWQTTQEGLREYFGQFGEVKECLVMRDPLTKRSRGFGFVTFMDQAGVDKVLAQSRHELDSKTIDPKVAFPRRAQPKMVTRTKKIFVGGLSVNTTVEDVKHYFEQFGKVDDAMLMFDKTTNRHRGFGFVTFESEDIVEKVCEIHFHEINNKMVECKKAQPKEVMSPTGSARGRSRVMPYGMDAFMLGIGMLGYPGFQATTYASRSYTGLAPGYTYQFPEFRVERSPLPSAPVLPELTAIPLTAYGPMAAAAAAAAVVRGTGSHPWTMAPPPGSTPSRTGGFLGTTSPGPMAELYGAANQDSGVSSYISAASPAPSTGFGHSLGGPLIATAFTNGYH
In turn, B1 registered a binding signal of 1.14 enrichment R.

Regarding B2, the binding signal is 0.437 enrichment R.

B3 came in with a binding signal of 3.27 enrichment R. In turn, B4 displayed a binding signal of 0.964 enrichment R. Next, B5: 0.435 enrichment R. B6 returned a binding signal of 0.537 enrichment R. Under B7 stands 0.986 enrichment R.

Regarding B8, the binding signal stood at 0.422 enrichment R. Next, B9: 0.475 enrichment R; B10: 0.349 enrichment R. Under B11 stands 1.67 enrichment R; under B12, 0.822 enrichment R; under B13, 1.31 enrichment R.

In the case of B14, the binding signal came to 0.305 enrichment R. As for B15, the binding signal is 0.451 enrichment R. Next, B16: 3.7 enrichment R.

With B17, the binding signal was 0.854 enrichment R. Under B18 stands 0.306 enrichment R. Next, B19: 0.797 enrichment R; B20: 0.408 enrichment R.

In turn, B21 displayed a binding signal of 0.397 enrichment R. Next, B22: 0.496 enrichment R.
